Measurements published in the supplement of paper PMC3334620.
In all, about 33,000 sequences were measured (“E-score (-0.5 to 0.5)”: median about -0.021, highest 2% from about 0.32 on). The list shows a part of the results.

Molecular target: T1, Zap1 (UniProt P47043)
T1 sequence: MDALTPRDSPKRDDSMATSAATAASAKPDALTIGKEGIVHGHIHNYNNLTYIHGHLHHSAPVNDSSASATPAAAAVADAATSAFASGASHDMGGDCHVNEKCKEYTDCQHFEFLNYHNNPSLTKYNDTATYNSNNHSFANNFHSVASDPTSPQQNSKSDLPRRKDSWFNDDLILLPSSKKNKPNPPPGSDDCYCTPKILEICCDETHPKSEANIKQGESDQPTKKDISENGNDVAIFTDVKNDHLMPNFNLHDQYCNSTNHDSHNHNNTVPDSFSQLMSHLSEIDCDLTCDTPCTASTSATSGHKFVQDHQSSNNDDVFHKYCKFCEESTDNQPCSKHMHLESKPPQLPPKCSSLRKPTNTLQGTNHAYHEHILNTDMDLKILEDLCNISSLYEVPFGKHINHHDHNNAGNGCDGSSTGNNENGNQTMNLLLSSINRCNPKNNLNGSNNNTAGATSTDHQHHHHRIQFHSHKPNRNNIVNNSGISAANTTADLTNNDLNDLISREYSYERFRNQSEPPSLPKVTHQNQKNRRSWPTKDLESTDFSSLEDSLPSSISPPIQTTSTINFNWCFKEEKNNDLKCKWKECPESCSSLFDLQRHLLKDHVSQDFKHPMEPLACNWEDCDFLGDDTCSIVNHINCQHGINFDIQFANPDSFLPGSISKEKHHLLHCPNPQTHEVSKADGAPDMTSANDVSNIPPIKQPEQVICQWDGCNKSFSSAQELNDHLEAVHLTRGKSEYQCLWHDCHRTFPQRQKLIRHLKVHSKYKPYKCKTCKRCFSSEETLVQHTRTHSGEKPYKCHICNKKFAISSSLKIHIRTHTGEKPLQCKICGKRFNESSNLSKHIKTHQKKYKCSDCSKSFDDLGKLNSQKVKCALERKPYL
Assay: PBM E-score (8-mer binding enrichment) (E-score (-0.5 to 0.5)); higher = stronger / more preferred TF binding; most listed sequences are background and not binding sites
Settings: protein concentration: 200 nM; construct: GST-full length
Procedure, shortened: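 Each ungapped eight-base word and its reverse complement, pooled, received an E-score from the Universal PBM Analysis Suite. Underlying scans, normalised with masliner, recorded fluorescent anti-GST bound to GST-tagged yeast transcription factors. These were applied at about 100-200 nM to universal all-10-mer Agilent arrays double-stranded by primer extension.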

| Sequence | PBM E-score |
| --- | --- |
| CGTGGGAA | -0.113 |
| GTATTAAC | 0.122 |
| ATATGGAT | 0.0428 |
| ACCTTGCT | 0.218 |
| ATCCACTG | -0.129 |
| ACAGCTAG | -0.35 |
| TAGCGGAA | -0.0454 |
| CGGCACGC | -0.245 |
| GGGGATCA | -0.309 |
| AAAGTCCC | -0.103 |
| CAAAGCAC | 0.084 |
| CTGTCTTC | -0.256 |
| ACTTCGGG | -0.172 |
| ACACAGGG | -0.043 |
| CCAATTGC | -0.158 |
| GGGCTTGA | -0.153 |
| TGCTGTAA | 0.0973 |
| AACCTGAA | 0.144 |
| CATGGCAA | 0.00526 |
| GCCGAACA | -0.0261 |
| CCAACTAG | -0.0636 |
| TTCAACAA | 0.133 |

| Sequence | PBM E-score |
| --- | --- |
| AAATTATT | 0.171 |
| CCCGAATA | 0.0841 |
| AAGTAGAC | 0.00956 |
| CGTACAGA | -0.231 |
| GACGAATA | 0.0813 |
| AATATGAG | 0.00046 |
| ATCTTCAA | 0.0279 |
| AAGGAATG | 0.0153 |
| GGGGCGCA | -0.221 |
| ACACGCTC | -0.0264 |
| CAGACTCG | -0.293 |
| ATCTAGCC | -0.151 |
| ACATTGAA | -0.0827 |
| ACCTCAGC | -0.0701 |
| ATAACCTA | 0.458 |
| ATTAGCTC | -0.132 |
| CCGCACCG | 0.0399 |
| CTTGCCGA | -0.193 |
| AGCCTACA | 0.0687 |
| ACCGTGAA | 0.194 |
| AGGGCATG | -0.0339 |
| GGGCCTGA | -0.201 |

| Sequence | PBM E-score |
| --- | --- |
| CACTCGCC | -0.159 |
| CAACAGCC | 0.0171 |
| CCGGTACA | 0.149 |
| CACGAAGA | 0.186 |
| ATGTCATC | -0.123 |
| ACAGGTGC | -0.176 |
| AGTGCCAG | -0.314 |
| ACGGGCGA | -0.17 |
| ACGTAGTA | 0.0481 |
| ACTGATGG | -0.199 |
| CTAAGGAC | -0.133 |
| TTAAGTAA | 0.0417 |
| GACAAAAC | 0.156 |
| ATTTATGC | -0.128 |
| AGACTACA | -0.17 |
| AATCGTCT | -0.136 |
| CAGGTTCG | -0.158 |
| ACGCTTAG | -0.181 |
| AGGCGTCA | -0.143 |
| AGTGTATG | -0.035 |
| AAGCATTC | -0.0259 |
| ATTCCGAG | 0.00285 |

| Sequence | PBM E-score |
| --- | --- |
| CGGGGACC | 0.127 |
| CACTGGCA | -0.147 |
| CGGAGGCC | 0.00069 |
| CTATTGAA | 0.0157 |
| CCAGCTCG | -0.254 |
| TCATACAA | 0.156 |
| ATATTCTG | 0.134 |
| CTTACGCA | -0.0487 |
| AATACGTC | 0.034 |
| CTAAGGTA | 0.263 |
| ACTTGTCC | -0.151 |
| ATTACATC | 0.0593 |
| ATTAGCGA | 0.0335 |
| AGATAAGG | 0.112 |
| ACAAGCCT | -0.199 |
| AGGTATAT | 0.115 |
| GGTAGCTA | -0.064 |
| TAGTGACA | 0.11 |
| GTCTGCAA | -0.0455 |
| ATTGTCAG | -0.00687 |
